Test results taken from the RNAGym collection of RNA variant scans (doi:10.1093/nar/gkz1192).
The source gives no read counts; variants with many changes may rest on few reads.

B1: CPEB3 Ribozyme (parent)
chain: UAACAGGGGGCCACAGCAGAAGCGUUCACGUCGCAGCCCCUGUCAGAUUCUGGUGAAUCUGCGAAUUCUGCUGUAUAUCUC

Variants of: B1
Experiment: self-cleavage, relative activity (ratio to wild type); higher = more cleavage; in vitro, sequencing
In short: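 For each CPEB3 ribozyme variant, relative activity is its cleaved/total read fraction divided by the unmutated ribozyme's. Barcoded error-prone PCR libraries were transcribed by T7 RNA polymerase (5 hours, 37°C) and held in DNase I for 15 min before an EDTA stop, with cleavage occurring throughout. Template-switching reverse transcription and Illumina sequencing were used to read the RNAs. A 5-read minimum applied, and results are the mean of three batches.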

Variant	self-cleavage
G8A U41C U54C U69A	0.07
G8A U43C G52A U74C	0.36
G8A U48C U49C	0.06
G8A U51A U58C	0.28
G8A U51G A75U	0.29
G8A U54C A56G A65G U74C	0.08
G8A U54C A57G U67C	0.09
G8A U54C U67C U80C	0.11
G8A U60C A64G	0.29
G8A U67A U72C	0.07
G8C A13G U25C G52U U66A G73U U78C	0.06
G8C A13U G33U A57U U69C	0.08
G8C A15G A28U U43C	0.63
G8C A15G C29A A57G	0.19
G8C A15U A20G U58C U80G	0.13
G8C A18C U26C	0.17
G8C A21G A28G	0.31
G8C A21U G63U U66C	0.17
G8C A28G A57C	0.22
G8C A28G G30A U31A U67C U69G U76C	0.04
G8C A28U U31C U80C	0.23

Variant	self-cleavage
G8C C11A C62U C68A	0.17
G8C C14A A28G C38G A45G U51A A64U	0.03
G8C C17G A18G U25A A47G A64G	0.06
G8C C40G A45G U60C U74C	0.11
G8C G16C A18G G36C	0.15
G8C G22C A35G A45G	0.06
G8C G24C U41C	0.26
G8C U25C A35U	0.06
G8C U26C A35U A64G	0.41
G8C U43C U60A U66A	0.24
G8C U51A A64G	0.17
G8C U51C U74A U78C	0.09
G8C U60C U76A U78C	0.07
G8U A13G A15U G63A	0.19
G8U A13G A15U G63U	0.38
G8U A13G A20G U25C G52U	0.04
G8U A13G U25A	0.21
G8U A13G U41A A45C U69A	0.11
G8U A13U U25C A56G G61U U72C	0.06
G8U A13U U41A A77U	0.27
G8U A13U U41A U51A	0.05

Variant	self-cleavage
G8U A13U U78C	0.08
G8U A15G C23U G30A G36U G55A	0.04
G8U A15G U26C A65G U67C	0.04
G8U A15U U41A U60A C68U	0.04
G8U A18C U26A U41C U51C U69C	0.05
G8U A18G A28G U31A	0.21
G8U A18G A28U U54C	0.2
G8U A18G C34A U43C G70A	0.13
G8U A18G U60C	0.19
G8U A18G U69A U72C	0.05
G8U A18U A21G	0.42
G8U A18U U31A U74C	0.07
G8U A20G A21G U26G U80C	0.05
G8U A20G A21G U60A U80C	0.17
G8U A20G U25C G33U A65C	0.08
G8U A20G U26A C38U U41C U49C	0.04
G8U A20U G30A A45U U54C	0.3
G8U A20U U26C A45U U72C	0.17
G8U A21G A56G U67C U72A	0.07
G8U A21G C23A U43C U69A	0.1
G8U A21G C27A A64U U69C U76C	0.03

Variant	self-cleavage
G8U A21G U26C U51C	0.04
G8U A21U U26C	0.05
G8U A21U U31C U60A U74A	0.06
G8U A28G U41C	0.13
G8U A28G U51A U60C	0.1
G8U A28G U67C	0.1
G8U A35G A45G U49C	0.07
G8U A35G U48C U58A U78C	0.11
G8U A35U A45C	0.13
G8U A35U A45C A57G	0.13
G8U A35U U43C A45G U76A	0.37
G8U A47G U60A U69C	0.04
G8U A56G U74A	0.23
G8U A57G U67A C68A U76A	0.05
G8U C11U A28U U43C G53C A57G U80A	0.04
G8U C12A U80A	0.09
G8U C14A A64G A65G	0.18
G8U C23A U43C A45G	0.06
G8U C38A A65U	0.11
G8U C44G A65U U66C	0.05
G8U G10A A20G A56U U78C	0.05
